Molecules are shown by their SMILES. ± gives the uncertainty stated by the source. Whole data set: some 9,900 compounds, median “viability index relative to DMSO control” near 1, cut for the lowest 2% near 0.85. The list shows a part of the results.

The test relates to Plasmodium falciparum NF54 stage V gametocytes. The test can be described thus: viability index relative to DMSO control (fraction); higher = less gametocyte killing. Conditions: 2.5 µM, library set: Broad Institute DOS, incubation time: 72 h. In a few lines: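 In 1,536-well plates, 10 µl of serum-free medium holding P. falciparum NF54 stage V gametocytes (0.75% gametocytemia, 1.25% hematocrit) received compound at 2.5 µM for 72 hr at 37°C in low oxygen. After one to two hours with 3 µl of 2.5 µM MitoTracker Red CMXRos containing 0.13% saponin, red particles of 20–70 µm2 were counted in a single field per well. Viability index is reported as the particle count over the plate mean of wells treated with solvent only.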
Take `C[C@H]1CN([C@@H](C)CO)C(=O)Cc2cc(NC(=O)CCC(F)(F)F)ccc2O[C@H]1CN(C)CC1CC1`: the viability index worked out at 1.0278 ± 0.00041.
As to `N#C[C@@H]1[C@H](c2ccc(C3=CCCC3)cc2)[C@H](CO)N1C(=O)c1ccccn1`, the viability index was found to be 1.13 ± 0.078.
The same measure for `O=C(O)C[C@@H]1C=C[C@H](NC(=O)Nc2cc(F)ccc2F)[C@@H](CO)O1`: 0.947 ± 0.13; for `N#Cc1cccc(-c2ccc3c(c2)[C@@H]2[C@@H](CCN2Cc2ccc4c(c2)OCO4)[C@@H](CO)N3)c1`: 1.01 ± 0.035.
The same measure for `CNC[C@@H]1OCc2ccccc2-c2ccccc2C(=O)N([C@@H](C)CO)C[C@@H]1C`: 0.991 ± 0.057; for `C[C@H](CO)N1C[C@H](C)[C@@H](CN(C)Cc2ccc(C(F)(F)F)cc2)Oc2c(NC(=O)NC3CCCCC3)cccc2C1=O`: 1.07 ± 0.065; for `C[C@@H]1CN([C@@H](C)CO)C(=O)CCCn2nncc2CO[C@@H]1CN(C)C(=O)c1ccc2ccn(C)c2c1`: 0.977 ± 0.033.
`CNC[C@@H]1OCc2ccccc2-c2ccccc2C(=O)N([C@@H](C)CO)C[C@H]1C` displayed a viability index of 0.979 ± 0.072.
The result for `COc1ccc2c3c([C@@H](CO)N(C[C@]33CN(C3)C(=O)CC3CC3)C(=O)C3CCCC3)n(C)c2c1` reads 0.932 ± 0.021; that for `N#Cc1cccc(-c2ccc3c(c2)[C@@H]2[C@@H](CCN2C(=O)c2ccccc2F)[C@H](CO)N3)c1`, 1.02 ± 0.063.
The result for `O=C(C[C@H]1CC[C@@H]2[C@H](COC[C@@H](O)CN2Cc2cccc(Cl)c2)O1)NCc1cccc(F)c1` reads 1.08 ± 0.057.
In turn, `C[C@H](CO)N1C[C@H](C)[C@H](CN(C)Cc2ccncc2)Oc2ncc(C#CCC3CCCCC3)cc2C1=O` gave a viability index of 0.861 ± 0.03.
The result for `CN1c2ccc(Br)cc2[C@@H]2[C@@H](CCN2C(=O)c2ccc(F)cc2)[C@@H]1CO` reads 1.088 ± 0.0073.
`COc1ccc2c3c([C@H](CO)N(C[C@]33CN(CC4CCCCC4)C3)C(=O)Cc3ccccn3)n(C)c2c1` had a viability index of 0.9893 ± 0.008.
The same measure for `CO[C@@H]1CN(C)C(=O)c2cc(NC(=O)c3cnccn3)ccc2OC[C@H](C)NC[C@H]1C`: 1.03 ± 0.053; for `O=C(Nc1ccc2c(c1)[C@H]1C[C@H](CC(=O)N3CCc4ccccc4C3)O[C@H](CO)[C@H]1O2)c1ccc2c(c1)OCO2`: 1.06 ± 0.05; for `CN(C[C@@H]1N[C@H](CO)[C@H]1c1ccc(C2=CCCC2)cc1)C(=O)c1cccc(F)c1`: 1.01 ± 0.07.
The same measure for `COc1ccc2c3c([C@@H](CO)N(Cc4ccccc4)C[C@]33CN(C3)S(=O)(=O)c3ccc(C)cc3)n(C)c2c1`: 0.998 ± 0.043.
With `COc1cccc(C#Cc2ccc([C@@H]3[C@@H](C#N)N[C@@H]3CO)cc2)c1`, the viability index is 1.05 ± 0.016.
The same measure for `N#Cc1cccc(-c2ccc3c(c2)[C@@H]2[C@@H](CCN2C(=O)CN2CCOCC2)[C@@H](CO)N3)c1`: 1.16 ± 0.1; for `CCCNC(=O)N(C)C[C@@H]1Oc2cc(C#C[C@H](C)O)ccc2S(=O)(=O)N([C@H](C)CO)C[C@H]1C`: 1.07 ± 0.064.
The same measure for `C[C@@H]1CN([C@H](C)CO)C(=O)c2ccccc2-c2ccccc2CO[C@@H]1CN(C)S(=O)(=O)c1cccc(C#N)c1`: 0.979 ± 0.037; for `CN1C[C@@H]2[C@H](c3ccccc31)[C@H](CO)N2C(=O)c1cccnc1`: 1.05 ± 0.058; for `Cc1noc(C)c1S(=O)(=O)N(C)C[C@@H]1OCc2cn(nn2)CCCC(=O)N([C@H](C)CO)C[C@@H]1C`: 1.08 ± 0.043.
The result for `CC(C)NC(=O)N1CC(=O)N2[C@H](CO)[C@H](c3ccc(/C=C/c4ccccc4)cc3)[C@@H]2C1` reads 0.98 ± 0.029; that for `O=C(C[C@@H]1CC[C@@H]2[C@H](COC[C@H](O)CN2Cc2cc(F)ccc2F)O1)NCc1ccc(Oc2ccccc2)cc1`, 1.03 ± 0.0057; that for `COc1ccccc1-c1cnc2c(c1)C(=O)N([C@@H](C)CO)C[C@H](C)[C@@H](CN(C)C(=O)CC1CC1)O2`, 1.08 ± 0.015.
Regarding `C[C@H](CO)N1C[C@H](C)[C@H](CN(C)C(=O)Nc2ccc3c(c2)OCO3)OCCCC[C@H](C)Oc2ccc(NS(=O)(=O)c3ccc(F)cc3)cc2C1=O`, the viability index was found to be 1.05 ± 0.1.
The result for `CCCC#Cc1ccc([C@@H]2[C@@H](CO)N3C(=O)CN(S(=O)(=O)c4ccccc4C)C[C@@H]23)cc1` reads 1.06 ± 0.081; that for `O=C(Cc1ccccn1)N1CC[C@@H]2[C@H]1c1cc(-c3cccc(F)c3)ccc1N[C@@H]2CO`, 1.099 ± 0.0021.
The same measure for `CN1c2ccc(-c3ccccc3)cc2[C@H]2[C@H](CCN2C(=O)CC2CC2)[C@@H]1CO`: 1.03 ± 0.04; for `N#C[C@H]1[C@H](c2ccccc2-c2ccccc2F)[C@H](CO)N1C(=O)Cc1ccccc1`: 1.05 ± 0.14.
The same measure for `C/C=C/c1cnc2c(c1)C(=O)N([C@H](C)CO)C[C@@H](C)[C@H](CN(C)C(=O)Nc1cccc(OC)c1)O2`: 1.02 ± 0.018.
In turn, `Cc1ccc(S(=O)(=O)Nc2ccc3c(c2)C(=O)N([C@H](C)CO)C[C@H](C)[C@@H](CN(C)S(=O)(=O)c2cccs2)OCCCC[C@H](C)O3)cc1` yielded a viability index of 1.12 ± 0.06.
For the molecule `CC(C)NC(=O)N[C@H]1CC[C@@H](CC(=O)NCCCN(C)C)O[C@@H]1CO`, the viability index amounted to 0.986 ± 0.083.
Regarding `C[C@H](CO)N1C[C@H](C)[C@@H](CN(C)C(=O)[C@@H]2CCCN2C)OCc2ccccc2-c2ccccc2C1=O`, the viability index amounted to 0.986 ± 0.046.
The result for `CCCC(=O)N1C[C@H]2[C@@H](c3ccccc31)[C@H](CO)N2C(=O)Nc1ccc(F)cc1` reads 0.96 ± 0.21; that for `Cc1ccc(CN2CC(=O)N3[C@H](C2)[C@H](c2ccc(-c4ccccc4F)cc2)[C@@H]3CO)cc1`, 1.05 ± 0.015.
Regarding `COc1ccc(S(=O)(=O)N2CC[C@@H]3[C@H](CO)Nc4ccc(Br)cc4[C@@H]32)cc1`, the viability index came to 1.096 ± 0.0085.
Take `C[C@H]1CN([C@@H](C)CO)C(=O)c2ccccc2-c2ccccc2CO[C@@H]1CN(C)C(=O)Nc1ccc(-c2ccccc2)cc1`: the viability index worked out at 0.9604 ± 0.0088.
The same measure for `Cc1cccc(S(=O)(=O)N[C@H]2CC[C@@H](CCNC(=O)Nc3cc(F)ccc3F)O[C@H]2CO)c1`: 1.1 ± 0.046; for `CO[C@H](CN(C)C(=O)c1cnccn1)[C@@H](C)CN([C@@H](C)CO)S(=O)(=O)c1ccccc1`: 1.048 ± 0.0082; for `COc1ccc(CNC(=O)C[C@H]2CC[C@H](NC(=O)CN(C)C)[C@@H](CO)O2)cc1`: 1.1 ± 0.008.
The result for `COc1cccc(C(=O)Nc2ccc3c(c2)OC[C@H](C)N(CCc2ccccc2)C[C@@H](C)[C@H](OC)CN(C)C3=O)c1` reads 1.03 ± 0.02; that for `O=C(C[C@@H]1C[C@H]2c3cc(NC(=O)c4cccnc4)ccc3O[C@H]2[C@@H](CO)O1)NCc1cc(F)ccc1F`, 1.09 ± 0.045.
The same measure for `Cc1ccc(S(=O)(=O)N(C)C[C@@H]2Oc3cc(C#CC4CCCC4)ccc3S(=O)(=O)N([C@@H](C)CO)C[C@@H]2C)cc1`: 0.837 ± 0.055.

Values taken from the supplement of paper PMC4723716.
